Laboratory results: PubChem BioAssay AID686979 (National Center for Advancing Translational Sciences (NCATS), 2013)
“And” between values parts separate entries of the source, which are not always exact repeats. Identical values can stand only once. Among all 420,000 compounds or so, about 50,000 (12%) were called active. Inconclusive means that the source gave no clear call. Such entries were picked first, then a sample of the others. Calls come from the whole dose curve; as a rule, active = well fitted inhibition curve with a large enough effect; inconclusive = small, poorly fitted or top-dose-only effect; inactive = flat fitted curve, though single readings scatter. Potencies of inconclusive entries are doubtful fits and often do not repeat.

assay: qHTS for Inhibitors of human tyrosyl-DNA phosphodiesterase 1 (TDP1): qHTS in cells in presence of CPT; conditions: chicken DT40 Tdp1-/-;hTDP1 cells + 20 nM CPT, ATP luminescence, 48 h; activity change, negative = growth inhibition: at 46.2 µM (top of the series); note: nearly all actives have a fitted effect of over 55% in size
How it was run: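 Cell growth measured by CellTiter-Glo luminescence after a minimum 48 h, 37 C compound exposure with 20 nM CPT in Tdp1-knockout DT40 cells stably expressing hTDP1, seeded 400/well; qHTS titration format.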
% is set by controls: 0 for no effect and ±100 for the full control effect; potency is the fitted concentration of half-maximal effect; tags give direction and shape of the fitted curve.

Row | Structure (SMILES) | Potency | activity change, negative = growth inhibition
1 | CCC(=O)Nc1ccc(/C(C)=N/NC(=O)c2c(-c3ccccc3Cl)noc2C)cc1 | inconclusive: 32.6 µM [inhibitor, single point] | 
2 | COc1ccc(C(=O)CCc2ccccc2)cc1 |  | inactive: 1.47%
3 | FC(F)(F)c1cccc(N2CCC(N=CN3CCCCCC3)=N2)c1 |  | inactive: -17.8%
4 | CC(C)N(C(=S)Nc1cccc(S(=O)(=O)N(C)C)c1)c1ccccc1 |  | inconclusive: -34.9% [inhibitor]
5 | Cc1cccc(CNS(=O)(=O)c2ccc(-c3coc(C)n3)cc2)c1 |  | inactive: -25.1%
6 | O=S(=O)(c1ccc(SCCOc2ccc(Cl)cc2)nc1)N1CCCC1 | inconclusive: 29.1 µM [inhibitor, single point] | 
7 | COc1ccc(C(=O)NCc2ccc(C)cc2)cc1S(=O)(=O)N1CCCC1 | inconclusive: 29.1 µM [inhibitor, single point] | 
8 | Cc1cccc(C)c1Nc1nnc(SC(C)C(=O)Nc2c(C)n(C)n(-c3ccccc3)c2=O)s1 (stereo not given) |  | inactive: -15.6%
9 | COc1ccc2c(c1)c1c(c(=O)n(-c3cccc(C)c3)c(=O)n1CC(=O)NCCC1=CCCCC1)n2C |  | inactive: -11.7%
10 | COc1ccc(NC(=O)CN(C)C(=O)c2cccnc2Sc2ccc(C)c(C)c2)cc1 |  | inactive: -28.2%
11 | O=c1c2cccnc2n(Cc2cccc(F)c2)c(=O)n1Cc1ccc(F)cc1 | inconclusive: 14.6 µM [inhibitor, single point] | 
12 | CCC(Nc1ccc(-c2nc(-c3cccnc3)no2)cc1[N+](=O)[O-])c1ccccc1 (stereo not given) | inconclusive: 20.6 µM [inhibitor, partial curve] | 
13 | CC1CCN(C(=O)Cn2cc(C(F)(F)F)ccc2=O)c2ccccc2S1 (stereo not given) | inconclusive: 29.1 µM [inhibitor, single point] | 
14 | COc1cccc(CNc2cc(CSc3ccc(Cl)cc3)nc(C)n2)c1 | inconclusive: 29.1 µM [inhibitor, single point] | 
15 | O=C(C1CC1)N1CCc2cc(Br)cc(S(=O)(=O)NCCCN3CCCC3)c21 |  | inactive: 17.7%
16 | O=C(c1cccc(S(=O)(=O)N2CCN(c3ccc(F)cc3)CC2)c1)N1CCCCCCC1 | inconclusive: 29.1 µM [inhibitor, single point] | 
17 | COc1ccc(CNC(=O)C(C#N)c2nc3ccccc3nc2N2CCN(C)CC2)cc1 (stereo not given) | inconclusive: 29.1 µM [inhibitor, single point] | 
18 | Cc1ccc(OCCC(=O)Nc2ccc(S(=O)(=O)Nc3nccs3)cc2)cc1 |  | inactive: -1.25%
19 | Cn1c(=S)c2[nH]c(SCCC(C)(C)C)nc2n(C)c1=O | active: 1.46 µM | 
20 | O=C1C(Cl)=C(Nc2ccccc2O)C(=O)N1CCc1ccccc1 |  | inactive: -46.1%
21 | Cn1nnnc1SCc1ccccc1F |  | inactive: 2.65%
22 | c1cncc(CNCc2ccco2)c1 |  | inactive: -8.07%
23 | Cc1ccc(CNC(=O)c2cc(-c3ccccc3)n(Cc3cc(C)no3)n2)cc1 | active: 20.6 µM | 
24 | Cc1ccc(S[C@@H](CCN2CC[C@H](C(C)(C)C)CCC2=O)c2ccccc2)cc1 | inconclusive: 17.8 µM [inhibitor, single point] and inconclusive: 29.1 µM [inhibitor, single point] | 

Row | Structure (SMILES) | Potency | activity change, negative = growth inhibition
25 | COc1ccc(CCN(C)C(=O)c2cc(S(=O)(=O)N3CCCCCC3)ccc2OC)cc1OC | inconclusive: 29.1 µM [inhibitor, single point] | 
26 | CN(CCCC(=O)Nc1ccc(Br)cc1F)S(=O)(=O)c1ccccc1 | inconclusive: 18.4 µM [inhibitor, single point] | 
27 | CC(=O)Nc1ccc(OCC(O)Cn2cnc3ccccc32)cc1 (stereo not given) |  | inactive: -21.8%
28 | COc1ccc(NCC(=O)N/N=C/C2CCCCC2)cc1 |  | inactive: 0.638%
29 | Fc1c(F)c(C(F)(F)F)c(F)c(F)c1N1CCN(c2ccc3nnc(C(F)(F)F)n3n2)CC1 | inconclusive: 25.9 µM [inhibitor, single point] | 
30 | O=C(Nc1ccccc1)c1cc2c(=O)c3ccccc3oc2nc1C(F)(F)F |  | inactive: 5.23%
31 | CCOC(=O)C1=c2/c(=C/c3ccncc3)c(N)c(C(=O)OC)n2C(=O)C(c2ccncc2)S1 (stereo not given) | inconclusive: 29.1 µM [inhibitor, single point] | 
32 | NNC(=O)CNC(c1ccccc1)c1cc(Br)ccc1NC(=O)c1ccccc1Br (stereo not given) |  | inactive: -5.11%
33 | COc1ccc(Cn2c(-c3ccc(OC)c(O)c3)nc3ccccc32)cc1O | inconclusive: 5.17 µM [inhibitor, single point] | 
34 | CCOC(=O)c1cc(-c2ccc(OC)c(S(=O)(=O)N3CCN(c4ccccc4)CC3)c2)on1 | active: 16.4 µM | 
35 | COc1ccc(S(=O)(=O)c2nnn(-c3cccc(Cl)c3)c2N)cc1 | active: 11.6 µM | 
36 | Cc1ccc(-c2nc(NC(=O)CSc3nnc4scc(-c5ccccc5)n34)ns2)cc1 | active: 18.4 µM | 
37 | Cn1c(/C=N/NC(=O)c2ccccc2)nc2ccccc21 | inconclusive: 29.1 µM [inhibitor, single point] | 
38 | COc1ccc(N2CC(NC(=O)C(c3ccccc3)c3ccccc3)CC2=O)cc1 (stereo not given) | inconclusive: 16.4 µM [inhibitor, single point] | 
39 | COCCn1ccc2c(OCC(=O)Nc3cccc(C(F)(F)F)c3)cccc2c1=O | inconclusive: 29.1 µM [inhibitor, single point] | 
40 | CC1CC(C)CN(C(=O)c2cccc3c2-c2ccccc2C3=O)C1 (stereo not given) | inconclusive: 18.4 µM [inhibitor, single point] | 
41 | CCOc1ccc(NC(=O)[C@@H]2CCC(=O)N2C2OC(=O)c3ccccc32)cc1 (stereo not given in full) |  | inactive: 15.5%
42 | Cc1ccc(Cn2ncn3c(cc4ccccc43)c2=O)cc1 | inconclusive: 10.3 µM [inhibitor, partial curve] | 
43 | Fc1ccccc1-c1nc(-c2ccncc2)no1 |  | inconclusive: -22.7% [inhibitor]
44 | CC(C)COc1ccc(C(=O)N(CC(=O)Nc2ccccc2C(F)(F)F)Cc2ccco2)cc1 | inconclusive: 29.1 µM [inhibitor, single point] | 
45 | CCCn1c(C(C)Nc2nc(-c3ccc(OC)cc3)cs2)nc2ccccc21 (stereo not given) | inconclusive: 29.1 µM [inhibitor, single point] | 
46 | COc1cc(NC(=O)C2CCCCC2)c(OC)cc1NC(=O)c1ccccc1 |  | inactive: -17.3%
47 | CCOC(=O)c1c(NC(=O)C(C)Sc2cn(CCNC(=O)c3ccc(OCC)cc3)c3ccccc23)sc2c1CCC2 (stereo not given) | inconclusive: 25.9 µM [inhibitor, single point] | 
48 | Cc1cc(NC(=O)CSc2nc3cc(Cl)ccc3o2)no1 | active: 4.61 µM | 

Row | Structure (SMILES) | Potency | activity change, negative = growth inhibition
49 | O=C(CNC(=O)c1cccc(-n2cccc2)c1)Nc1ccccc1Br |  | inactive: -18.8%
50 | Cc1cccc(OCc2nnc(-c3ccc(F)cc3)o2)c1 |  | inactive: -5.25%
51 | Cc1c(NC(=O)c2ccc(NS(=O)(=O)c3ccc(F)c(F)c3)cc2)c(=O)n(-c2ccccc2)n1C |  | inactive: -1.05%
52 | Cc1c(C(=O)NCc2cccc(C(F)(F)F)c2)sc(=O)n1Cc1ccccc1F | inconclusive: 29.1 µM [inhibitor, single point] | 
53 | Cc1cccc(N2CCN(C(=O)c3cnn(-c4ccccc4)c3C3CCN(C(=O)OC(C)(C)C)CC3)CC2)c1C | inconclusive: 23.1 µM [inhibitor, single point] | 
54 | CCc1nc2nc(C)cc(Nc3cc(C)ccc3C)n2n1 | inconclusive: 23.1 µM [inhibitor, single point] | 
55 | CC(C)NC(=S)NC(c1ccccc1)(c1ccccc1)c1ccccc1 | inconclusive: 29.1 µM [inhibitor, single point] | 
56 | Cc1ccsc1C(=O)N1CCC1(C)C(=O)NS(=O)(=O)c1cccc(F)c1 (stereo not given) |  | inactive: -13.4%
57 | O=C1CSC(c2cn(-c3ccccc3)nc2-c2cc3ccccc3oc2=O)N1Cc1ccccc1 (stereo not given) | inconclusive: 16.4 µM [inhibitor, partial curve, poor fit] | 
58 | C=CCn1c(N2CCCCCC2)nc2c1c(=O)[nH]c(=O)n2C |  | inconclusive: -33.9% [inhibitor]
59 | COc1ccc(OC)c(CN2CCN(c3ccc(S(=O)(=O)N4CCCC4)cn3)CC2)c1 | inconclusive: 10.3 µM [inhibitor, partial curve, poor fit] | 
60 | Cc1cc(C)cc(N=c2c([N+](=O)[O-])nn(-c3cccc(Cl)c3)n2O)c1 | active: 11.2 µM | 
61 | O=C(Cc1ccc(NC(=O)C2CCN(C(=O)CCc3ccccc3)CC2)cc1)Nc1ccc(C(=O)N2CCOCC2)cc1 | inconclusive: 23.1 µM [inhibitor, single point] | 
62 | CCn1cc(C(=O)NCCc2ccc(OC)cc2)c(=O)c2ccc(C)nc21 | inconclusive: 18.4 µM [inhibitor, partial curve] | 
63 | CC1CCN(CCNC(=O)c2ccc3c(=O)n(Cc4ccc(Cl)cc4)c(=S)[nH]c3c2)CC1 | inconclusive: 20.6 µM [inhibitor, single point] | 
64 | COCCn1c(C)cc(C(=O)CN2C(=O)C(=O)N(CCC3=CCCCC3)C2=O)c1C |  | inactive: -24.2%
65 | O=C(Nc1cccc(Cl)c1)c1ccc(-n2cncn2)c([N+](=O)[O-])c1 | inconclusive: 16.4 µM [inhibitor, single point] | 
66 | Cc1ccccc1S(=O)(=O)Cc1ccc(C(=O)NCCN(CC(C)C)CC(C)C)o1 | inconclusive: 23.1 µM [inhibitor, single point] | 
67 | COc1ccccc1CN1CCC2(CC1)CCN(C(=O)c1cc(C(F)(F)F)cc(C(F)(F)F)c1)CC2 | inconclusive: 29.1 µM [inhibitor, single point] | 
68 | Clc1ccc(CSc2nncn3c2cc2occc23)cc1 | inconclusive: 29.1 µM [inhibitor, single point] | 
69 | CCCCCCN1CCN(C2CN(Cc3ccccc3)S(=O)(=O)C2)CC1 (stereo not given) | inconclusive: 29.1 µM [inhibitor, single point] | 
70 | CC(C)(C)C(=O)OCC1OC(n2cnc(C(N)=O)n2)C(O)C1O (stereo not given) | active: 16.4 µM | 
